# PubChem BioAssay AID686978 (National Center for Advancing Translational Sciences (NCATS), 2013)
# Among all 420,000 compounds or so, about 64,000 (15%) were called active. The shares of active, inactive and inconclusive entries below differ from those in the screen. Calls follow the shape of the dose curve; as a rule, active = well fitted inhibition curve with a large enough effect; inconclusive = small, poorly fitted or top-dose-only effect; inactive = flat fitted curve, though single readings scatter. No potency is given beside an inconclusive call; the fits are too rough.
# Assay: qHTS for Inhibitors of human tyrosyl-DNA phosphodiesterase 1 (TDP1): qHTS in cells in absence of CPT; also: nearly all actives have a fitted effect of over 55% in size
# Details: DT40 Tdp1-/- hTDP1 cells, no CPT, ATP luminescence, 48 h; activity change, negative = growth inhibition: at 46.2 µM (top of the series)
# In short: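 No-CPT arm: Tdp1-/-;hTDP1 DT40 cells (400/well) plus compounds, incubated ≥48 hr at 37 °C. Readout CellTiter-Glo luminescence.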
# % is scaled to controls: 0 for no effect and ±100 for the full control effect; potency is read from the fitted curve at half-maximal effect; tags tell the direction and shape of the fitted curve.
SMILES,"activity change, negative = growth inhibition",Potency
CCOC(=O)NC(=O)COC(=O)c1cccc2ccccc12,inactive: -7.78%,
COc1cc2c(=O)n(Cc3ccccc3)c(=O)n(CC(=O)Nc3cc(C(F)(F)F)ccc3Cl)c2cc1OC,,"inconclusive [inhibitor, single point]"
CC(=O)N1CCc2cc(S(=O)(=O)C(C)CC(=O)Nc3ccc(OC(F)(F)F)cc3)ccc21 (stereo not given),,"inconclusive [inhibitor, partial curve]"
CCOC(=O)[C@H]1[C@H]2COc3ccc(Br)cc3[C@@H]2N2C(=O)c3cc(OC)c(OC)cc3NC(=O)[C@@]12C,,"inconclusive [inhibitor, partial curve]"
COc1ccc(Cl)cc1NC(=O)CN(C)CC(=O)Nc1ccc(C)cc1Br,,"inconclusive [inhibitor, full curve, poor fit]"
O=C(c1ccccc1)c1cncc(Br)c1,,"inconclusive [inhibitor, single point]"
O=C(c1cc(COc2cccc(C(F)(F)F)c2)on1)N1CCCC1,,"inconclusive [inhibitor, single point]"
CCOC(=O)/C(=N\Nc1cccc(C(F)(F)F)c1)N(CCOC)CCOC,,"inconclusive [inhibitor, partial curve]"
CCOc1cc(C(=O)O/N=C(\N)c2ccccn2)cc(OCC)c1OCC,,"inconclusive [inhibitor, single point]"
CC1=C/C(=N\Nc2ccccc2[N+](=O)[O-])CC(C)(C)C1,,"inconclusive [inhibitor, single point]"
Cc1ccc(N(CC(=O)NCc2ccccn2)S(=O)(=O)c2ccccc2)cc1Cl,,"inconclusive [inhibitor, single point]"
Cc1cc(C)c(NC(=O)c2ccc3c(c2)NC(=O)C(C)S3)c(C)c1 (stereo not given),inactive: -15.4%,
O=S(=O)(c1ccc(S(=O)(=O)N2CCCN(Cc3ccccc3)C2)cc1)N1CCCCCC1,,"inconclusive [inhibitor, single point]"
Cc1ccc(/C=N/N(C)S(=O)(=O)c2ccc(C)cc2)cc1,,active: 20.6 µM
N#CC1=C(N)Oc2ccccc2C12C(=O)Nc1n[nH]c(-c3ccccc3)c12 (stereo not given),,"inconclusive [inhibitor, single point]"
O=C(OCc1ccc([N+](=O)[O-])cc1)c1cc(=O)c2ccccc2o1,inactive: -18.3%,
COc1ccc(C(=O)c2ccc(Cl)cc2Cl)cc1,inconclusive: -32.2% [inhibitor],
CCOC(=O)C1(Cc2ccccc2C)CCCN(C(=O)c2sccc2C)C1 (stereo not given),,"inconclusive [inhibitor, single point]"
O=C1Nc2cc(Cl)c(Cl)cc2N(O)N1c1cc(Cl)cc(Cl)c1,inactive: -19.7%,
C[C@@]12C(=O)N(Cc3ccccc3)CC(=O)N1[C@H]1c3ccccc3OC[C@@H]1[C@@H]2c1ccccc1,,"inconclusive [inhibitor, single point]"
COc1ccc(OC)c(NC(=O)CSc2nc(-c3ccccc3)cc(=O)[nH]2)c1,,"inconclusive [inhibitor, single point]"
O=C(CCC1CCCN(C(=O)c2cc3ccccc3o2)C1)NCc1ccc(F)c(F)c1 (stereo not given),,active: 16.4 µM
CC(C)Cn1c(N)c(C(=O)COC(=O)CC23CC4CC(CC(C4)C2)C3)c(=O)n(C)c1=O,,active: 7.31 µM

SMILES,"activity change, negative = growth inhibition",Potency
COc1cc2nc(SCC(=O)Nc3ccc(F)cc3)n3nc(CCn4c(C)nc5ccccc54)nc3c2cc1OC,,active: 5.17 µM
COc1cccc(CC(=O)Nc2ccc(N3CCOCC3)c(S(=O)(=O)Nc3ccccc3OC)c2)c1,inactive: -14.3%,
N#CC(Sc1ccccn1)c1ccc(Cl)cc1 (stereo not given),,"inconclusive [inhibitor, single point]"
Cc1ccc(S(=O)(=O)N(C)C[C@@H]2OCc3cnnn3CCCC(=O)N([C@@H](C)CO)C[C@@H]2C)cc1,inactive: -19.9%,
Cc1ccc(CN2CCNC(=O)C2CC(=O)N(C)CCc2ccccc2)cc1 (stereo not given),inconclusive: -32.1% [inhibitor],
CCNc1nnc(-c2ccccc2OC)s1,inactive: 2.76%,
COc1ccc(C2c3c(n(C)c4ccccc34)C(=O)N2CC(=O)Nc2ccc(Cl)cc2)cc1 (stereo not given),,"inconclusive [inhibitor, single point]"
O=C1CCCC/C=C\C[C@H](CC(=O)N(CCO)Cc2ccccc2)C(=O)N2CCC[C@@H]2CO1,,"inconclusive [inhibitor, single point]"
CN1CC[C@@]2(CCCN(C(=O)c3cccc(F)c3)C2)C1,inactive: -5.77%,
CC(=O)c1c(C)[nH]c(C(=O)OCc2ccc([N+](=O)[O-])cc2)c1C,,"inconclusive [inhibitor, partial curve, poor fit]"
CCc1ccc(N2CCn3c2nc2c3c(=O)n(Cc3cccc(C)c3)c(=O)n2C)cc1,inactive: 4.1%,
Cc1cccc(N2CCN(C(=O)c3ccncc3)CC2C)c1 (stereo not given),inactive: -24.5%,
OCc1cn(-c2ccc(Cl)cc2)nn1,inactive: -7.62%,
COc1cc(CNCCN(C)C)c(Br)cc1OCC(=O)NCc1ccccc1,inactive: -24.9%,
COc1ccc(Cl)cc1NS(=O)(=O)c1cccc2cccnc12,,"inconclusive [inhibitor, single point]"
O=C(CSc1ncc2c(n1)-c1ccccc1N(Cc1ccc(F)cc1)S2(=O)=O)c1ccc(Br)cc1,,"inconclusive [inhibitor, single point]"
CC(c1ccccc1)N1CCn2c(nc3cc(NS(C)(=O)=O)ccc32)C1 (stereo not given),,"inconclusive [inhibitor, single point]"
O=C(C(=S)N1CCOCC1)c1c[nH]c2ccccc12,inactive: -3.67%,
Cc1ccc(NC(=O)C(=O)NCC(c2ccc3c(c2)OCO3)N2CCOCC2)c(C)c1 (stereo not given),,"inconclusive [inhibitor, single point]"
COC(=O)c1ccc(CNC(=O)C2CCC(=O)N(Cc3ccccn3)C2)cc1 (stereo not given),inactive: 6.62%,
Cc1nc2sc(-c3ccccc3)nn2c(=O)c1Br,,"inconclusive [inhibitor, single point]"
CC(C)C(NC(=O)C12CC3CC(CC(C3)C1)C2)C(=O)N/N=C/C1=C(N2CCOCC2)C(=C\c2cccc([N+](=O)[O-])c2)/CC1 (stereo not given),,"inconclusive [inhibitor, single point]"
